In PubChem BioAssay AID1963576 (National Center for Advancing Translational Sciences (NCATS), 2024):
About 60 (0.1%) of roughly 46,000 compounds were called active. Not shown: some 3% with an inconclusive outcome. The call rests on the fitted dose curve; in most records, active means well fitted inhibition curve with a large enough effect; inconclusive means small, poorly fitted or top-dose-only effect; inactive means no such curve, though single readings can be large or run the other way. The list shows a part of the results.

Assay: Primary qHTS assay for Inhibitors of ovarian cancer metastasis using an organotypic tumor microenvironment (TME) model. Further: nearly all actives have a fitted effect of over 65% in size.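 On activity change, negative = inhibition: plate controls were DMSO wells for no effect and tomatine positive control wells for full effect.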
Conditions: SKOV3ip1-GFP adhesion/invasion on 3D omental model, fluorescence; series mostly up to 45.8 µM; activity change, negative = inhibition: at the top concentration
How it was run: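 qHTS, 4-pt dose (0.36-46 umol/L); SKOV3ip1-GFP, 1,200 cells/well, no FBS; primary omental fibroblast/mesothelial co-culture 48 h pre-grown; 2 h RT + 16 h 37 C; PBS wash, 4% PFA; GFP count 488/509 nm.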

Activity change, negative = inhibition, inactive:
Cc1ccc(NC(=O)CN(CCc2ccccc2)S(=O)(=O)c2ccccc2)c(C)c1 9.53%
CCOc1ccc(CNC(=O)Cn2nc(C)n3cccc3c2=O)cc1 -11.9%
CCc1ccc(-n2nc3ccc(NC(=O)c4cc(Cl)c(OC)c(Cl)c4)cc3n2)cc1 2.83%
CCCCn1cc(S(=O)(=O)c2ccc(OCC)cc2)c(=O)c2cc(OC)c(OC)cc21 16.2%
CN(C(=O)CSc1nc2ccc(NC(=O)c3ccccc3F)cc2s1)c1ccccc1 -10.1%
COC(=O)c1cccc(NC(=O)N(C)CCc2c(C)nn(C)c2C)c1 -1.39%
Cc1ccc(CNC(=O)c2cccc(N3CCCS3(=O)=O)c2)cc1 1.75%
COc1cc(N2C(=O)CSC23C(=O)N(C)c2ccccc23)cc(OC)c1OC (stereo unspecified) -10.8%
COc1ccc(CN2CCc3nc(Nc4ccccc4)ncc3C2)c(OC)c1OC -5.54%
Cc1ccc(CNC(=O)Cn2c(=O)n(Cc3ccccc3)c(=O)c3c2c2cc(C)ccc2n3C)cc1 73.8%
CC(C)c1ccc(NC(=O)c2cn(C3CCCCC3)c(=O)c3c2c2ccccc2n3C)cc1 7.92%
COc1ccc(Nc2nc3c(S(=O)(=O)c4ccccc4)nnn3c3ccc(Cl)cc23)c(OC)c1 1.74%
Fc1ccc(-c2cc(-c3nc(-c4ccccc4)no3)[nH]n2)cc1 -1.14%
Cc1ccc2c(c1)c1c(c(=O)n(-c3cccc(Cl)c3)c(=O)n1CC(=O)c1ccc(Cl)cc1)n2C -3.76%
CC(C)Cn1cc(NC(=O)NCc2ccccc2)c2ccccc2c1=O 14.5%
CCCCn1c(=N)c(S(=O)(=O)c2ccccc2)cc2c(=O)n3cccc(C)c3nc21 2.42%
COc1ccccc1C1=NS(=O)(=O)N(C)C(C(=O)Nc2cc(OC)c(OC)c(OC)c2)=C1 10.7%
COc1ccc(-c2nc(C)c(CCNC(=O)c3ccc(F)c(F)c3)s2)cc1 0.728%
Cc1ccccc1CNC(=O)c1cccc(NC(=O)c2nsc3ccccc23)c1 2.04%
CC(C)c1cc(C(C)C)c(CC(=O)NS(=O)(=O)Oc2c(C(C)C)cccc2C(C)C)c(C(C)C)c1 -10.7%
CCC1=Nc2cc(C(=O)NCc3ccccc3OC)ccc2Sc2ccc(Cl)cc21 -5.06%
COc1ccc(-c2cn3cccnc3n2)cc1NC(=O)COc1ccccc1 -7.97%
COc1ccc(N2C(=O)CSC23C(=O)N(Cc2ccccc2F)c2ccccc23)cc1Cl (stereo unspecified) 5.09%
COc1ccc(-c2oc3cc(OC)ccc3c2C(=O)c2ccc(C#N)cc2)cc1 -18.8%
COCCNc1ncnc2c1cnn2-c1cc(Cl)ccc1C 1.6%
Cn1nc(C(=O)NCc2cccc(Cl)c2)c2c1-c1ccccc1SC2 -1.67%
CN1CCN(C(c2ccc(Cl)cc2Cl)c2sc3nc(-c4ccco4)nn3c2O)CC1 (stereo unspecified) 2.5%
O=C(NCc1ccc(Cl)cc1)c1ccc(NC(=O)N2CC3CCCN3c3ccccc32)cc1 (stereo unspecified) 8.01%
Cc1ccc(Cl)cc1N1CCN(C(=O)CN2C(=O)COc3ccc(S(=O)(=O)N4CCC(C)CC4)cc32)CC1 2.18%
CC(C)(C)C(=O)NC1(C(F)(F)F)NC(=O)N(c2ccc(F)cc2)C1=O (stereo unspecified) 2.91%
COc1ccc(N2CCN(CC(O)COc3ccc(C)cc3C)CC2)cc1 (stereo unspecified) 10.9%
CNc1nc(Nc2ccc(C(=O)N3CCOCC3)cc2OC)ncc1Cl -6.91%
CCOc1ccccc1CNS(=O)(=O)c1ccc2c(c1)C(C)(C)C(=O)N2C -14.8%
CCOC(=O)CN(Cc1ccccc1)C(C(=O)NC1CCCCC1)c1ccc(C)cc1 (stereo unspecified) -7.46%
CCOC(=O)C1CCN(C(=O)Cn2c(-c3cccs3)cc3cc(Cl)ccc32)CC1 5.51%
CCC(=O)N1CCc2cc(S(=O)(=O)NC(C(=O)NCc3ccccc3Cl)C(C)C)ccc21 (stereo unspecified) -7.79%
Cc1nn(C(=O)c2ccccc2)c(C)c1S(=O)(=O)N1CCOCC1 24.7%
COc1ccc(CNC(=O)c2ccc(-c3nc(CSc4ccc(C)cc4)c(C)o3)cc2)cc1OC 1.88%
O=C(NCc1ccc(F)cc1)c1cc(Sc2ccc(F)cc2F)nc2ccccc12 -28.8%
Cc1c(C(=O)NCc2ccccc2Cl)sc2nc(-c3ccc(F)cc3)cn12 3.93%
COc1ccc(NC(=O)CC2C(=O)N(c3ccc(C)cc3)C(=O)N2Cc2ccc3c(c2)OCO3)cc1 (stereo unspecified) -27.7%
Cc1ccccc1Cn1nnc2c(=O)[nH]c(C3CCCN(C(=O)c4ccc(F)cc4)C3)nc21 (stereo unspecified) -15.3%
O=C(Nc1nnc(S(=O)(=O)N2CCCC2)s1)c1ccccc1Br 4.15%
Cc1ccccc1OCCCn1c(-c2ccc(Cl)cc2)nc2ccccc2c1=O -6.57%
COc1ccc(Nc2nc3cc(Cl)c(Cl)cc3n3cnnc23)cc1Cl 7.57%
Cc1ccc2c(c1)N(C(=O)CCC(=O)NCc1cccs1)CCO2 5.19%

outcome, inactive:
Cc1cc(C)cc(NC(=O)C(=O)NCC(c2ccc3c(c2)OCO3)N2CCOCC2)c1 (stereo unspecified)
CCOc1ccc(N2CC(C)Cn3c2nc2c3c(=O)n(CC(=O)O)c(=O)n2C)cc1 (stereo unspecified)
Cc1nc2nc(SCC(=O)Nc3cccc(Cl)c3)nn2c(C)c1Cc1ccccc1
Cc1c(CC(=O)N2CCCCC2)c(=O)oc2cc3occ(C(C)(C)C)c3cc12
O=S(=O)(NCc1ccccc1Cl)c1ccc(-c2cnc(C3CC3)o2)cc1
Cc1ccc(S(=O)(=O)C2(C(=O)Nc3ccc(C)c(Cl)c3)CC2)cc1
CCC(=O)N1c2ccccc2CC1C(=O)NCCc1ccccc1Cl (stereo unspecified)
Cc1ccc(OCC(=O)Nc2ccc(OCc3cc(=O)n4ccsc4n3)cc2)cc1
Cc1cc(C)c2c(n1)SCC(=O)N2CC(=O)Nc1ccc(C)c(C)c1
COc1ccc(N2CCN(c3ncnc4c3cnn4-c3ccc(C)c(Cl)c3)CC2)cc1
Cc1ccc(CNC(=O)CCS(=O)(=O)c2cc3c(cc2Cl)NC(=O)CO3)cc1
CCOC(=O)c1ccc(NC(=O)CSc2nnc(CNC(=O)c3ccc(OC)cc3)n2CC)cc1
Cn1c(=O)oc2cc(S(=O)(=O)N3CCC(C(=O)NCc4ccc(F)cc4)CC3)ccc21
Cc1ccc(C)c(CN2C(=O)c3ccccc3S(=O)c3ccc(C(=O)N4CCN(c5ccccc5F)CC4)cc32)c1 (stereo unspecified)
COc1cc(N2C(=O)CSC23C(=O)N(Cc2ccc(C)cc2)c2ccccc23)cc(OC)c1OC (stereo unspecified)
